Whole data set: some 110,000 compounds, median “z-score” near -0.1, cut for the highest 2% near 2. Some of the results follow.

For the experiment, the target named is Metabotropic glutamate receptor 8 (Rattus norvegicus) (UniProt P70579). Description: rat mGluR8 modulators via GIRK flux, primary screen, cell-based, thallium flux, HTS (AID 488969). The conditions noted are these: HEK293 rat mGluR8, GIRK (G protein-gated inwardly rectifying potassium channel) thallium flux, FluoZin2; at 10 µM; stronger effect = higher value.
Chain of UniProt P70579 (P70579 whole entry, looked up): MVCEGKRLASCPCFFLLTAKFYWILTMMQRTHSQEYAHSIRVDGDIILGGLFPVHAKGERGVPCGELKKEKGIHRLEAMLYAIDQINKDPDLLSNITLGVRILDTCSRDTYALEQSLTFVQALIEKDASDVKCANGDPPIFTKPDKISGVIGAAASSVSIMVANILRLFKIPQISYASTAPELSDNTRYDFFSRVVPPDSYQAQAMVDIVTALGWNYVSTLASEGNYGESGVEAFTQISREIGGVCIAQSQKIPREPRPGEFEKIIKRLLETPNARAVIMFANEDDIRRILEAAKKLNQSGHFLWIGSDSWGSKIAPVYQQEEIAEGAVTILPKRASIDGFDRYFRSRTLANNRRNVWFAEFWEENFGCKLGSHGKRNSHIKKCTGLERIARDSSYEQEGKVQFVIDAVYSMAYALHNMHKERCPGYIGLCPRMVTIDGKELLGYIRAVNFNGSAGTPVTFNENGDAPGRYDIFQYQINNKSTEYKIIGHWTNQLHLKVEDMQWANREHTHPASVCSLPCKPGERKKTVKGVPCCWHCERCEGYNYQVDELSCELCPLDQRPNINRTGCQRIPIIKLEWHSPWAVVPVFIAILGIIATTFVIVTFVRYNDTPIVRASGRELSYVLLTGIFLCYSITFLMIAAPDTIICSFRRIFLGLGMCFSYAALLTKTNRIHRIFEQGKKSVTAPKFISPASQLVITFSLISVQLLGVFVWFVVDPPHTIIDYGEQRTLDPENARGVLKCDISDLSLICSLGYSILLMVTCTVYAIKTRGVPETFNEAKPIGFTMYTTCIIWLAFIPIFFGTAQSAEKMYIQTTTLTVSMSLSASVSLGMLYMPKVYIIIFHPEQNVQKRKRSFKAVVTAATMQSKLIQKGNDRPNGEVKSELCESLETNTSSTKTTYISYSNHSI
`Cc1cccnc1-n1c(CN2C(=O)c3ccccc3C2=O)nc2ccccc2c1=O` yielded a z-score of 0.0987. Take `COc1ccccc1CC1/C(=N/O)C2CCN1CC2` (stereo not given): the z-score is -0.406. Turning to `CN(C(=O)Oc1ccc([N+](=O)[O-])cc1)c1ccccc1`, the z-score was -0.159.

In the case of `CCN1CCN(C(=O)COc2ccc(S(=O)(=O)NC(C)C)cc2)CC1`, the z-score is -0.11. With `CC(=O)OC1C2CCCC1C(N1CCCC1)CC2` (stereo not given) the figure was -0.393; with `Cc1nc2ccccn2c1P(=S)(N1CCCCC1)N1CCCCC1`, -0.368; with `Cc1cc(C)c(C(=O)CN2CCOCC2)c(C)c1`, -0.0206. For `O=P(Nc1c(Cl)cccc1Cl)(c1ccccc1)c1nc2c(s1)CCCC2` (stereo not given) the value was -0.554.

The compound `CC(=NCc1ccc(F)cc1)c1c(O)n(C)c(=O)n(C)c1=O` gave a z-score of 0.397. For `C1=C(CCNCc2ccccc2)CCCC1`, the z-score turned out to be 0.704.

Compound `Cc1c(C(=O)N2CCC3(CC2)OCCO3)sc2ncnc(N(C)c3ccccc3)c12` registered a z-score of -0.392. Consider `c1ccc2[nH]c(CCNC3CCCCC3)nc2c1`, for which the z-score is -0.185. For `CCCNS(=O)(=O)c1ccc(OCC(=O)N2CCN(C)CC2)cc1` the value was 0.234. Compound `COC(=O)C(O)(c1ccc(N=Cc2ccccc2O)c(C)c1)C(F)(F)F` (stereo not given) had a z-score of 0.286. The compound `Cc1ccc(C(C)C)c(OCC(=O)N2CCN(Cc3nc4cc([N+](=O)[O-])ccc4n3C)CC2)c1` returned a z-score of -0.713.

With `CCOC(=O)c1c(C)n(CCN2CCN(C)CC2)c2ccc(OC)cc12`, the z-score was 1.21.

With `COc1ccc(Cl)cc1NC1=NCC(C)S1` (stereo not given), the z-score was -0.0245. With `N#CCCn1cc(C(=O)Nc2ccccc2Br)c(-c2ccc([N+](=O)[O-])cc2)n1` the figure was 0.412; with `CC(=O)N1CCC2(CC1)CC(=O)c1cc(OCC(=O)N3CCN(C)CC3)ccc1O2`, 0.0662. In the case of `CCCCOC(=O)C1=C(N)OC2=C(C(=O)CCC2)[C@]12C(=O)Nc1ccccc12`, the z-score turned out to be 0.112. Take `CN1C2CCC1CC(OC(=O)c1ccc([N+](=O)[O-])cc1)C2` (stereo not given): the z-score was determined as 0.093. `CC1=NN(c2ccccc2)C(=O)C1/C=C1/C(=O)NC(=O)N(c2cc(C)cc(C)c2)C1=O` (stereo not given): the z-score was -0.266.

On to `O=C(CN1CCOCC1)NCC(=O)Nc1ccc(Br)cc1C(=O)c1ccccc1`, for which the z-score was 0.00301. `CCC(C)N1CCN(C(=O)Cc2ccccc2)CC1` (stereo not given) showed a z-score of -0.234. `CCOC(=O)C1CCN(/C=C2/C(=O)NC(=O)N(c3ccc(OCC)cc3)C2=O)CC1` had a z-score of 0.14. Turning to `CN(C)CC1CCCCC1OC(=O)c1ccc(Cl)c(Cl)c1` (stereo not given), the z-score amounted to 0.316. With `CCC(=NCCCn1ccnc1)c1c(O)n(Cc2ccccc2)c(=O)[nH]c1=O` the figure was -0.14; with `O=C(c1cc(C(=O)NCc2ccc(Cl)cc2)c(=O)n(Cc2ccc(Cl)cc2)c1)c1cc(F)ccc1O`, -0.165. `CCOC(=O)C1CCCCC12C(C#N)=C(N)Oc1n[nH]c(C)c12` (stereo not given) came in with a z-score of 0.608.

With `O=C1C2CCCN2C(c2cccc(Cl)c2)N1c1ccccn1` (stereo not given), the z-score was -0.498. In the case of `COc1cccc(-n2c(O)c(C=NCc3ccc4c(c3)OCO4)c(=O)[nH]c2=O)c1`, the z-score is -0.566. `CCCC[n+]1cc(/N=C(\[O-])OC)on1` had a z-score of -0.276. In turn, `Cc1ccccc1Cc1c(C)nc2nc(SCC(=O)N3CCC4(CC3)OCCO4)nn2c1C` had a z-score of -0.419.

`Cc1cc(OC(=O)CCCNC(=O)OC(C)(C)C)c2c3c(c(=O)oc2c1)CCC3` yielded a z-score of -0.209. `Cc1cccc(OCC(=O)N2CCN(Cc3ccncc3)CC2)c1` showed a z-score of -0.0785. As for `CN1C(=O)NC(=O)[C@]2(Cc3ccccc3N3CCN(c4ccccc4)CC32)C1=O` (stereo not given in full), the z-score is -0.28. With `CN(C)c1ccc(N=Cc2c(O)n(CCC3=CCCCC3)c(=O)[nH]c2=O)cc1` the figure was 0.0762; with `C(=NC12CN3CN(CN(C3)C1)C2)c1cccs1`, -0.0859.

`NC(=O)CSc1nnc([C@@H](N)Cc2c[nH]c3ccccc23)o1`: the z-score worked out at 0.139. On to `O=C1CCCN1C(=O)c1cncc(Br)c1`, for which the z-score is -0.123.

`O=C(c1cc(-c2ccc(Cl)cc2)n(-c2ccc(Cl)cc2Cl)n1)N1CCOCC1`: the z-score is -0.25. For `CC(C)OP(=O)(OC(C)C)C(O)c1ccccc1F` (stereo not given), the z-score is -0.358. For `CCC(C#N)(CC)P(=S)(c1ccccc1)c1ccccc1` the value was -1.62; for `Cc1cccc(CNCCc2ccccc2)n1`, -0.0722; for `COC(=O)c1ccc(NC(=O)CSc2nc3ccc(N4C(=O)C5C6C=CC(C6)C5C4=O)cc3s2)cc1` (stereo not given), -0.108.

Compound `C=CCn1c(O)c(C(C)=NCCO)c(=O)[nH]c1=O` yielded a z-score of 0.0269. Take `CCc1nc2ccccc2c(=O)n1-c1ccc2ccccc2c1`: the z-score was -0.285. Compound `CC1=CC(=O)NP(=O)(Oc2ccc3ccccc3c2)N1` (stereo not given) gave a z-score of -0.127.

`CNC(=O)Oc1ccc(-c2cn3cc(Cl)ccc3n2)cc1` had a z-score of -0.191. For the compound `Cn1c(O)c(C=NCCCN2CCCC2=O)c(=O)n(C)c1=O`, the z-score is -0.541.

Regarding `COc1ccccc1CCNC1CCC(C)CC1` (stereo not given), the z-score is -1.32. As for `O=C1NCCN2CCCC12` (stereo not given), the z-score is -0.377. For `Cc1ccc(/C=C2/C(=O)NC(=O)N(CCc3ccc(F)cc3)C2=O)o1` the value was -0.444; for `CC(Cc1ccccc1)[n+]1cc(/N=C(\N)[O-])on1` (stereo not given), -0.00574. Take `O=c1[nH]c(=O)n(CCc2ccccc2)c(O)c1C=NCCCn1ccnc1`: the z-score was -0.246.

(Values after PubChem BioAssay AID488969 (Vanderbilt High Throughput Screening Facility, 2010).)
